Assay results: paper PMC4336329 (PLoS ONE, 2015)
About 2,200 (0.71%) of roughly 310,000 compounds showed an effect of 50% or more. The effect is printed as a negative number. The list shows a part of the results.

target: human ether-à-go-go-related gene (hERG) potassium channel (human, UniProt Q12809); experiment: primary screen, population patch clamp on CHO cells stably expressing hERG
Sequence (Q12809 whole entry, looked up): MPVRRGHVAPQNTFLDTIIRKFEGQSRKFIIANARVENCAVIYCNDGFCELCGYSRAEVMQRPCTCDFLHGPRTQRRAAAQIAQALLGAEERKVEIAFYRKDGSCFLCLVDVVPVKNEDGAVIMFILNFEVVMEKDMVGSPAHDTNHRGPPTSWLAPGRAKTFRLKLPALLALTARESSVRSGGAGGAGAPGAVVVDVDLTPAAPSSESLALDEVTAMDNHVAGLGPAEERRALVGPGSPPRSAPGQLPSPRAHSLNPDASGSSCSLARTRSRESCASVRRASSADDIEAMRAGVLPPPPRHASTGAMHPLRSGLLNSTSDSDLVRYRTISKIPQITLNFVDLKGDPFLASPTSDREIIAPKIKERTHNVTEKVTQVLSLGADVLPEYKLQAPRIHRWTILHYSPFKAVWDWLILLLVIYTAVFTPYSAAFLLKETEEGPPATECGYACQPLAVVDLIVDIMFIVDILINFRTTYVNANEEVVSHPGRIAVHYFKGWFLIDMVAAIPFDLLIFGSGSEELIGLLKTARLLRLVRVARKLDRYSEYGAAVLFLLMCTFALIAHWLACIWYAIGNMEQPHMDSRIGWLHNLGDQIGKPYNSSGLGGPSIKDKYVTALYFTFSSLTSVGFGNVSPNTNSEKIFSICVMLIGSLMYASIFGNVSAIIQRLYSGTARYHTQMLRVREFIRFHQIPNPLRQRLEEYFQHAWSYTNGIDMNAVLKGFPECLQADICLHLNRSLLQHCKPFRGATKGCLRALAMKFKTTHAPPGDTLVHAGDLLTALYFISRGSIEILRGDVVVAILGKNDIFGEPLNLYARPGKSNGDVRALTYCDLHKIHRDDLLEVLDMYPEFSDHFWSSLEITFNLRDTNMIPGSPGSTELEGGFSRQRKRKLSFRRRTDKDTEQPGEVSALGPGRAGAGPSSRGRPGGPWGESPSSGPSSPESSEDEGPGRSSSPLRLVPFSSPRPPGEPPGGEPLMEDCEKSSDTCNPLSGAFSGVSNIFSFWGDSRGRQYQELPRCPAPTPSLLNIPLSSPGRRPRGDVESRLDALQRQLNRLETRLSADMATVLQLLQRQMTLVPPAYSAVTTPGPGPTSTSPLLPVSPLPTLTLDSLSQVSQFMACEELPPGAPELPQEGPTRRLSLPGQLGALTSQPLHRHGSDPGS

Going from `CN(C)c1nnnn1Cc1ccccc1` to `COc1ccccc1NC(=O)c1nnn(Cc2ccccc2)c1NC(=O)C(F)(F)F`, the “hERG current change (%, negative = inhibition) at 1uM” value falls from 14.2% to -5.21%.

Going from `Cc1ccc2nc(-c3ccncc3)cc(C(=O)N3CCC4(CC3)OCCO4)c2c1` to `CC(C)(C)OC(=O)N1CCC(Cc2cc(-c3cccc(Br)c3)no2)(C(=O)O)CC1`, the “hERG current change (%, negative = inhibition) at 1uM” value falls from 1.27% to -14%.

First: CCc1cc(=O)oc2cc(OCC(=O)NCCCN3CCCC3=O)c(Cl)cc12
Second: CCNC(=O)COC(=O)c1cc(S(=O)(=O)N2CCCCC2)ccc1C
The “hERG current change (%, negative = inhibition) at 1uM” value of the first is higher: 17.5% for the first, 5.5% for the second.

First: Cc1ccc(C)c(NC(=O)CN(C)C(=O)c2ccc(-n3cncn3)c([N+](=O)[O-])c2)c1
Second: COc1ccc(Cc2nc3ccc(C(=O)N(C)Cc4nccs4)cc3o2)cc1OC
The “hERG current change (%, negative = inhibition) at 1uM” value of the first is lower: -2.6% for the first, 14.4% for the second.

First: Cn1c(SC2CCCCC2=O)nnc1-c1ccccc1F (stereo not shown)
Second: CN1C(=O)C(C)(C)c2cc(S(=O)(=O)N3CCN(c4ccccc4F)CC3)ccc21
The “hERG current change (%, negative = inhibition) at 1uM” value of the first is higher: 15.5% for the first, 1.55% for the second.

Going from `NC(=O)C1CCN(C(=O)c2ccc(-c3ccccc3)cc2)CC1` to `CC(=O)c1ccc(N2CCN(C(=O)c3cccc(Oc4ccccc4)c3)CC2)cc1`, the “hERG current change (%, negative = inhibition) at 1uM” value falls from 8.47% to 0.983%.

Going from `Nc1nc2ccccc2n1CCOc1ccccc1Cl` to `Cc1ccc(S(=O)(=O)CCc2nc3ccccc3n2CCC#N)cc1`, the “hERG current change (%, negative = inhibition) at 1uM” value rises from -0.285% to 2.55%.

First: O=C(CSc1ccc(F)cc1)NC12CC3CC(CC(C3)C1)C2
Second: CCCNC(=O)NC(C)C12CC3CC(CC(C3)C1)C2 (stereo not shown)
The “hERG current change (%, negative = inhibition) at 1uM” value of the first is lower: 8.16% for the first, 9.76% for the second.

Going from `CC(C)c1ccc(NC(=O)CCNC(=O)N2CC(=O)Nc3ccccc32)cc1` to `CC(C)c1ccc(/C=C(\NC(=O)c2ccccc2)C(=O)NCCCN2CCOCC2)cc1`, the “hERG current change (%, negative = inhibition) at 1uM” value falls from 13.3% to -35.8%.

First: C/C=C\C(=O)Nc1cccc(C2=NOC3(C2)C[C@H](C(N)=O)N(C(=O)/C=C/CC)C3)c1 (stereo partly shown)
Second: CCCNC(=O)c1ccc(N2CCC3(CC2)CC(c2ccccc2)=NO3)c(NC(=O)c2ccc(Br)cc2)c1
The “hERG current change (%, negative = inhibition) at 1uM” value of the first is higher: 12.7% for the first, 6.67% for the second.

First: O=C(c1ccncc1)N1N=C(C2CC2)CC1(O)C(F)(F)F (stereo not shown)
Second: Cc1ccc(CNC(=O)C2(C(F)(F)F)C/C(=C\Cc3ccccc3)CCCO2)o1 (stereo not shown)
The “hERG current change (%, negative = inhibition) at 1uM” value of the first is lower: 7.9% for the first, 13.2% for the second.

Going from `Cc1cccnc1NC(=O)c1ccc(OCC2CCCO2)cc1` (stereo not shown) to `COc1ccc(NC(=O)CSCC(=O)Nc2cccc3ncccc23)cc1`, the “hERG current change (%, negative = inhibition) at 1uM” value rises from 12.4% to 15.1%.

Compared with `COc1ccc(Cc2nnc(SCC(=O)N3CCCCC3)o2)cc1`, `CCOc1ccc(N2C(=O)CC(N3CCN(C(=O)CN4CCCC4)CC3)C2=O)cc1` (stereo not shown) is higher in “hERG current change (%, negative = inhibition) at 1uM” value: 1.06% for the first, 20.1% for the second.

First: COc1ccc(-c2c(C)nn3c(C)cc(C)nc23)cc1
Second: COc1ccc(-c2nc(CNS(=O)(=O)c3ccc(OC)c(OC)c3)cs2)cc1
The “hERG current change (%, negative = inhibition) at 1uM” value of the first is higher: 13.1% for the first, -1.62% for the second.

Compared with `Cc1nn(-c2ccccc2)c(N)c1N=O`, `Cc1ccc(C(=O)OCc2cn(-c3ccccc3)nn2)cc1` is lower in “hERG current change (%, negative = inhibition) at 1uM” value: 12.8% for the first, 5.41% for the second.

First: c1ccc2nc(N3CCN(Cc4ccc5c(c4)OCO5)CC3)cnc2c1
Second: Cc1cccn2c(=O)nc(SCC(=O)Nc3ccc4c(c3)OCCO4)nc12
The “hERG current change (%, negative = inhibition) at 1uM” value of the first is lower: 6.24% for the first, 17% for the second.

First: Nc1nc(SCC(=O)Nc2ccc(S(N)(=O)=O)cc2)n[nH]1
Second: O=C(CSc1ccccc1F)Nc1ccc(N2CCOCC2)cc1
The “hERG current change (%, negative = inhibition) at 1uM” value of the first is lower: -1.22% for the first, 12.6% for the second.

Compared with `Cc1nc2scc(C)n2c(=O)c1S(=O)(=O)Nc1ccc(F)cc1`, `O=S(=O)(Nc1ccc(-n2cccc2)cc1)c1ccccc1` is lower in “hERG current change (%, negative = inhibition) at 1uM” value: 10.4% for the first, 5.07% for the second.

Compared with `Cc1ccc(NNC(=O)c2c(C)noc2C)cc1Cl`, `Cc1occc1C(=O)Nc1ccc(Br)cc1F` is lower in “hERG current change (%, negative = inhibition) at 1uM” value: 11.9% for the first, 4.2% for the second.

Going from `COc1cc(C)nc(N(C)C(C)=O)n1` to `CCC(C)(C)NC(=O)C1CCN(c2nc(OC)nc(OC)n2)CC1`, the “hERG current change (%, negative = inhibition) at 1uM” value falls from 9.31% to 8.29%.

First: Cc1ccc(C)c(-n2c(=O)c(C#N)cc3c(=O)n4ccccc4nc32)c1
Second: Cc1ccccc1-n1c(=O)c(C#N)cc2c(=O)n3ccccc3nc21
The “hERG current change (%, negative = inhibition) at 1uM” value of the first is higher: 21.3% for the first, -1.23% for the second.

Going from `N#Cc1c(-c2ccc(Cl)cc2)cc(-c2ccccc2)nc1SCC(=O)O` to `CCOC(=O)Cn1nc(-c2ccc(F)cc2)cc(Cc2ccccc2)c1=O`, the “hERG current change (%, negative = inhibition) at 1uM” value rises from 9.85% to 10.1%.

First: CC(C)Sc1nnc(CNC(=O)C23CC4CC(CC(C4)C2)C3)n1C1CCCCC1
Second: Cc1ccc(CCN2CC(C(=O)NC3CCCCC3)CC2=O)cc1 (stereo not shown)
The “hERG current change (%, negative = inhibition) at 1uM” value of the first is higher: -0.429% for the first, -2.15% for the second.

Compared with `Cc1cc(Nc2nnnn2-c2ccccc2)n(-c2ccc(Cl)cc2)n1`, `Cc1ccccc1N/C(SCc1ccc(Cl)cc1)=C(/C#N)C(=O)NCc1ccco1` is lower in “hERG current change (%, negative = inhibition) at 1uM” value: 9.18% for the first, 7.88% for the second.

Going from `COc1cc(/C=N/NC(=O)CN2CCCCC2)ccc1OCc1ccccc1` to `O=C(CCN1CCCCC1)NCC(=O)Nc1ccc(Br)cc1C(=O)c1ccccc1`, the “hERG current change (%, negative = inhibition) at 1uM” value falls from -37.7% to -78.1%.

Going from `O=C(CCCCn1c(=O)c2ccccc2n(CC(=O)Nc2ccc(F)cc2)c1=O)NCc1ccco1` to `CCCCCC(=O)Nc1ccc(C(=O)COC(=O)c2ccccn2)cc1`, the “hERG current change (%, negative = inhibition) at 1uM” value falls from 2.48% to -2.64%.

First: CN(C)c1ccc(N/C(=N\S(=O)(=O)c2cccs2)c2ccccc2)cc1.Cl
Second: NC(=O)c1ccc(C(=O)N/N=C/c2cccc(Oc3ccccc3)c2)cc1
The “hERG current change (%, negative = inhibition) at 1uM” value of the first is lower: 6.87% for the first, 14.9% for the second.

Compared with `CNC(=O)Oc1ccc2c(c1)[C@]1(C)CCN(C)C1N2C.O=C(O)c1ccccc1O` (stereo partly shown), `COc1ccc(O)c(C(=O)/C=C/c2cc3ccccc3o2)c1` is lower in “hERG current change (%, negative = inhibition) at 1uM” value: 11.3% for the first, 10.7% for the second.

Compared with `O=C(Cc1ccc(Cl)cc1)Nc1ccc(SC(F)F)cc1`, `Cc1ccc(NC(=S)NC(=O)c2ccc(-c3ccc(Cl)cc3)o2)c(O)c1` is higher in “hERG current change (%, negative = inhibition) at 1uM” value: -1.45% for the first, 14.6% for the second.

Compared with `CN(C)CCN(C(=O)c1ccc2ccccc2c1)c1nc2c(F)cc(F)cc2s1.Cl`, `CCN(Cc1ccccc1)C(=O)c1ccc(SC)cc1OC` is higher in “hERG current change (%, negative = inhibition) at 1uM” value: 13.7% for the first, 15.4% for the second.

Going from `Cc1ccc(OCC(=O)NCc2ccccc2)c([N+](=O)[O-])n1` to `C[C@@H](NC(=O)c1nc[nH]c1C(=O)NCc1ccccc1)c1ccccc1`, the “hERG current change (%, negative = inhibition) at 1uM” value rises from 9.74% to 15.8%.

First: Cc1[nH]ccc(=O)c1OCc1c(Cl)cccc1Cl
Second: Cc1ccc2cc(CCNC(=O)Cc3cccs3)c(=O)[nH]c2c1
The “hERG current change (%, negative = inhibition) at 1uM” value of the first is higher: 10.2% for the first, 7.37% for the second.

First: COc1ccc(S(=O)(=O)N2CCSC2c2ccc(N)cc2)cc1 (stereo not shown)
Second: Cc1ccc(S(=O)(=O)N2CCN(C(=O)CN3CCOCC3)C2c2ccccc2)cc1 (stereo not shown)
The “hERG current change (%, negative = inhibition) at 1uM” value of the first is lower: -2.49% for the first, 8.45% for the second.

First: CCc1nnc(NC(=O)CSCc2cc(=O)n3nc(C(C)C)sc3n2)s1
Second: CCN(CC)CCCNC(=O)c1ccc(C)c(NC(=O)C2=C(C)OCCS2)c1
The “hERG current change (%, negative = inhibition) at 1uM” value of the first is lower: 7.52% for the first, 10.9% for the second.

Compared with `CC(=O)NN1C(=O)c2ccccc2NC1c1ccccc1` (stereo not shown), `O=C(NC1CC1)c1cccc(S(=O)(=O)Nc2ccccc2F)c1` is lower in “hERG current change (%, negative = inhibition) at 1uM” value: 17.6% for the first, 6.25% for the second.

First: COC(=O)C(C)Oc1cc(C)ccc1COc1ccc(-n2nc(C)n(C(F)F)c2=O)cc1 (stereo not shown)
Second: CC(=O)Nc1ccc(Oc2ccc(NC(C)=O)c(NC(C)=O)c2)cc1
The “hERG current change (%, negative = inhibition) at 1uM” value of the first is higher: 11% for the first, 8.86% for the second.

Going from `Cc1cccc(Cn2c(N(C)Cc3ccccc3)nc3c2c(=O)[nH]c(=O)n3C)c1` to `COc1ccc2[nH]c(=O)c(CN(CCN3CCCC3)C(=O)Nc3ccccc3Cl)cc2c1`, the “hERG current change (%, negative = inhibition) at 1uM” value falls from 8.04% to 2.67%.

Compared with `CC1CCCCC12NC(=O)N(CC(=O)N1CCN(S(=O)(=O)/C=C/c3ccccc3)CC1)C2=O` (stereo not shown), `Cc1cc(F)ccc1S(=O)(=O)N1CCCOC1CNC(=O)C(=O)NC1CCCC1` (stereo not shown) is lower in “hERG current change (%, negative = inhibition) at 1uM” value: 5.21% for the first, 1.93% for the second.

First: Cc1cc(C)n(CCNC(=O)c2cc(COc3c(F)cccc3F)on2)n1
Second: O=C(c1cc(-c2ccc(Cl)cc2Cl)on1)N1CCCC1
The “hERG current change (%, negative = inhibition) at 1uM” value of the first is lower: 8.43% for the first, 12.5% for the second.

First: O=C(Cn1cc2c(n1)CCCC2)N1CCCC1
Second: CN(CCC1CCOCC1)C(=O)C1CCC(=O)N(CCc2cccc(F)c2)C1 (stereo not shown)
The “hERG current change (%, negative = inhibition) at 1uM” value of the first is lower: 8.36% for the first, 13.5% for the second.

Compared with `COc1cc2c(cc1OC)CN(C(=O)CNS(=O)(=O)c1ccc(C)c(C)c1)CC2`, `CCc1c(C)[nH]n(-c2ccc(Oc3ccccc3)c(S(=O)(=O)O)c2)c1=O` is higher in “hERG current change (%, negative = inhibition) at 1uM” value: 11.2% for the first, 18% for the second.

Going from `CC(C)[C@H](NC(=O)N1C[C@H]2C[C@@H](C1)c1cccc(=O)n1C2)C(=O)Nc1ccccc1F` to `O=S1(=O)CCOC[C@H](Cc2ccccc2)N1Cc1ccc(F)cc1`, the “hERG current change (%, negative = inhibition) at 1uM” value rises from 5.29% to 11.3%.

Going from `CNC(=S)NNC(=O)c1ccccc1F` to `Cc1nc(SCc2cccc(Oc3ccccc3)c2)n[nH]1`, the “hERG current change (%, negative = inhibition) at 1uM” value falls from 15.9% to -3.95%.

Compared with `CCCCCN(C(=O)COC(=O)c1ccc(C)cc1)c1c(N)n(CCCC)c(=O)[nH]c1=O`, `COc1ccc(CCNc2nc(-c3cccnc3)nc3ccccc23)cc1OC` is higher in “hERG current change (%, negative = inhibition) at 1uM” value: 6.05% for the first, 9.94% for the second.
